# Test results taken from PubChem BioAssay AID904 (National Center for Advancing Translational Sciences (NCATS), 2007).
# Screen size: about 55,000 compounds; about 530 (0.96%) were called active. Inconclusive means that the source gave no clear call. Such entries were picked first, then a sample of the others. Calls come from the whole dose curve; as a rule, active = well fitted cell-killing curve with a large enough effect; inconclusive = small, poorly fitted or top-dose-only effect; inactive = no such curve, though single readings can be large or run the other way. Where the call is inconclusive, the potency comes from a doubtful curve fit.
# Test: qHTS Screen for Compounds that Selectively Target Cancer Cells with p53 Mutations: Cytotoxicity of p53 Null Cells at the Nonpermissive Temperature; note: nearly all actives have a fitted effect of over 50% in size
# Conditions: H1299 p53-null (neo) cells, 39C, ATPlite viability, 24 h; series mostly up to 46.1 µM
# Method in brief: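 Concentration-response (up to 46 uM) was run for 24 h at the nonpermissive 39C on H1299-p53A138V or H1299-neo cells. ATP content was measured with ATPlite luminescence. AC50 values were Hill-modeled after normalizing between DMSO and 100 uM tamoxifen killing.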
# Potency is the fitted concentration of half-maximal effect; tags give direction and shape of the fitted curve.
row,Structure (SMILES),Potency
1,Cc1ccc(-c2ccc(=O)n(C(C)C(=O)Nc3ccccc3Cl)n2)cc1C (stereo unspecified),"inconclusive: 0.631 µM [cytotoxic, full curve, poor fit]"
2,CC1CCc2nc3ncn(CC(=O)Nc4cccc(C#N)c4)c(=O)c3cc2C1 (stereo unspecified),"inconclusive: 0.158 µM [cytotoxic, full curve, poor fit]"
3,COC(=O)c1ccc(Cn2c(SCc3cccc(C)c3)nc3ccncc32)cc1,"inconclusive: 0.0631 µM [cytotoxic, full curve, poor fit]"
4,CCCCNC(=O)CSc1nc2ccccc2nc1Cc1ccc(Cl)cc1,inactive
5,COc1ccc(-c2noc(N3CCC(C(=O)Nc4ccc(C)c(F)c4)CC3)n2)cc1OC,"inconclusive: 0.02 µM [cytotoxic, full curve]"
6,COc1ccc(NC(=O)c2csnn2)cc1,"inconclusive: 20 µM [cytotoxic, partial curve, poor fit]"
7,COC(=O)c1c(-c2ccc(Cl)cc2)noc1N1CCN(c2ccc(F)cc2)CC1,"inconclusive: 0.005 µM [cytotoxic, full curve, poor fit]"
8,COc1cc(NC(=O)c2nc3ccccc3n(C)c2=O)cc(OC)c1OC,"inconclusive: 10 µM [cytotoxic, single point]"
9,CCCOc1ccc(C(=O)Nc2ccc3oc(-c4ccc(N(C)C)cc4)nc3c2)cc1,inactive
10,Cc1ccc2nc(-c3cccc(N)c3)[nH]c2c1,"inconclusive: 12.6 µM [cytotoxic, partial curve]"
11,Fc1ccc(C(NCCc2ccccc2)c2nnc(-c3ccccc3Cl)o2)cc1 (stereo unspecified),"inconclusive: 17.8 µM [cytotoxic, single point]"
12,O=C(Cn1cccc1C(=O)c1ccccc1)NCc1ccccc1Cl,"inconclusive: 6.31 µM [cytotoxic, full curve, poor fit]"
13,COc1ccc(CNc2nc3c(-c4cccc(F)c4)nnn3c3ccccc23)cc1,"inconclusive: 5.01 µM [cytotoxic, partial curve, poor fit]"
14,CCCS(=O)(=O)c1ncc(Cl)c(C(=O)Nc2c(C(=O)Nc3ccccc3)oc3ccccc23)n1,active: 15.8 µM
15,Cc1oc(-c2ccc(Cl)cc2)nc1CN1CCCC(C(=O)NCCc2ccccc2)C1 (stereo unspecified),inactive
16,Cc1ccc(Cn2c(=O)n(Cc3ccccc3)c(=O)c3c(C)c(C)sc32)cc1,inactive
17,O=C(Nc1cccc(Cl)c1)C1CCN(S(=O)(=O)Cc2ccccc2)CC1,inactive
18,CCCCOc1cccc(C(=O)N(Cc2ccc(Br)o2)C2CCS(=O)(=O)C2)c1 (stereo unspecified),inactive
19,Cc1cccc(C(=O)Nc2ccc(C(=O)OCc3cc(=O)n4c(C)csc4n3)cc2)c1,"inconclusive: 12.6 µM [cytotoxic, single point]"
20,COCCNC(=O)CSc1nc(-c2ccccc2)[nH]c1-c1ccc(C)cc1,"inconclusive: 20 µM [cytotoxic, single point]"
21,CCN1CCN(c2cc(C)c3cc(NC(=O)/C=C/c4ccc(C)cc4)ccc3n2)CC1,"inconclusive: 20 µM [cytotoxic, single point]"

row,Structure (SMILES),Potency
1,COc1cccc(NC(=O)N(Cc2cn(C)c3ccccc23)C2CCCCCC2)c1,"inconclusive: 10 µM [cytotoxic, single point]"
2,CCOC(=O)N1CCc2c(sc3c2C(=O)NC(c2ccc(C(=O)OC)cc2)N3)C1 (stereo unspecified),"inconclusive: 1.26 µM [cytotoxic, full curve, poor fit]"
3,COC(=O)c1c(-c2cccs2)csc1NC(=O)c1ccc(C)cc1,"inconclusive: 0.158 µM [cytotoxic, full curve, poor fit]"
4,Cc1ccc(CNS(=O)(=O)c2ccc3[nH]c4c(c3c2)CCCC4)cc1,"inconclusive: 35.5 µM [cytotoxic, single point]"
5,COc1ccc(-c2noc(-c3ccc(N4CCN(c5ccccc5)CC4)c([N+](=O)[O-])c3)n2)cc1OC,"inconclusive: 10 µM [cytotoxic, partial curve]"
6,Cc1ccccc1CCNC(=O)c1ccc2c(c1)nc1n2CCC(C)C1 (stereo unspecified),"inconclusive: 1.41 µM [cytotoxic, full curve, poor fit]"
7,Nc1ccc(N2CCN(c3ncc(C(F)(F)F)cc3Cl)CC2)c(C(F)(F)F)c1,"inconclusive: 12.6 µM [cytotoxic, partial curve]"
8,Cc1cc(C)cc(NC(=O)C(=O)NCC(c2cccnc2)N2CCc3ccccc3C2)c1 (stereo unspecified),"inconclusive: 3.16 µM [cytotoxic, partial curve]"
9,COc1cc(C(=O)N2CCN(c3ccc(Nc4ccc(C)cc4)nn3)CC2)cc(OC)c1OC,inactive
10,O=C(CC1(O)C(=O)Nc2cc(Cl)cc(Cl)c21)c1ccccc1O (stereo unspecified),inactive
11,CCc1ccc(NCc2cc3cc4c(cc3n(CC(=O)Nc3cccc(OC)c3)c2=O)OCO4)cc1,inactive
12,Cc1cccc(NC(=O)c2ccc3snnc3c2)c1,"inconclusive: 0.0079 µM [cytotoxic, full curve, poor fit]"
13,Cc1nn(C(CC(=O)O)C(=O)O)c(C)c1Br (stereo unspecified),"inconclusive: 5.62 µM [cytotoxic, single point]"
14,Cc1c(C(=O)OCCOc2ccccc2)[nH]c2c1C(=O)CC(c1ccccc1)C2 (stereo unspecified),"inconclusive: 0.126 µM [cytotoxic, full curve]"
15,O=C(Nc1ccc2nc(SCC(=O)N3CCOCC3)sc2c1)c1cccc(Cl)c1,"inconclusive: 11.2 µM [cytotoxic, single point]"
16,COc1ccccc1N1CCN(C(=O)c2nc(SC)ncc2Cl)CC1,"inconclusive: 0.891 µM [cytotoxic, full curve, poor fit]"
17,Cc1ccc(CN2CCC(CNC(=O)Nc3ccc(Cl)cc3)C2)cc1 (stereo unspecified),"inconclusive: 1 µM [cytotoxic, partial curve]"
18,CCOc1ccc(NC(=O)c2cnc(N3CCCC3)nc2C)cc1,inactive
19,COc1ccc(/C=C/C(=O)Nc2ccc3nc4c(c(Nc5ccccc5OC)c3c2)CCCC4)cc1,"inconclusive: 10 µM [cytotoxic, partial curve]"
20,Cc1cc(S(=O)(=O)Nc2cc3c(cc2NCc2ccccc2)n(C)c(=O)n3C)ccc1F,"inconclusive: 3.98 µM [cytotoxic, partial curve]"
